From PubChem BioAssay AID1671188 (National Center for Advancing Translational Sciences (NCATS), 2021)
Hit rate of the full screen: of about 100,000 compounds, about 250 (0.25%) were called active. Inconclusive means that the source gave no clear call. Such entries were picked first, then a sample of the others. Calls follow the shape of the dose curve; as a rule, active = well fitted inhibition curve with a large enough effect; inconclusive = small, poorly fitted or top-dose-only effect; inactive = flat fitted curve, though single readings scatter. Potencies of inconclusive entries are left out as doubtful fits.

These compounds were tested against Alanine aminotransferase 2 (Homo sapiens) (UniProt Q8TD30) (assay: Primary qHTS assay for inhibitors of Glutamate pyruvate transaminase 2 (GPT2)). Details: Recombinant GPT2, coupled pyruvate oxidase/HRP Amplex Red fluorescence; series mostly up to 57.7 µM.
Method in brief: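 Inhibition is scored from Amplex Red fluorescence generated when pyruvate oxidase and HRP act on pyruvate released by GPT2. Reactions contain 10ng/uL enzyme, 250uM a-KG and 2mM L-alanine and run 30 min at room temperature.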
Also: nearly all actives have a fitted effect of over 60% in size.
Potency is read from the fitted curve at half-maximal effect; tags tell the direction and shape of the fitted curve.

Chain of UniProt Q8TD30 (Q8TD30 whole entry, looked up): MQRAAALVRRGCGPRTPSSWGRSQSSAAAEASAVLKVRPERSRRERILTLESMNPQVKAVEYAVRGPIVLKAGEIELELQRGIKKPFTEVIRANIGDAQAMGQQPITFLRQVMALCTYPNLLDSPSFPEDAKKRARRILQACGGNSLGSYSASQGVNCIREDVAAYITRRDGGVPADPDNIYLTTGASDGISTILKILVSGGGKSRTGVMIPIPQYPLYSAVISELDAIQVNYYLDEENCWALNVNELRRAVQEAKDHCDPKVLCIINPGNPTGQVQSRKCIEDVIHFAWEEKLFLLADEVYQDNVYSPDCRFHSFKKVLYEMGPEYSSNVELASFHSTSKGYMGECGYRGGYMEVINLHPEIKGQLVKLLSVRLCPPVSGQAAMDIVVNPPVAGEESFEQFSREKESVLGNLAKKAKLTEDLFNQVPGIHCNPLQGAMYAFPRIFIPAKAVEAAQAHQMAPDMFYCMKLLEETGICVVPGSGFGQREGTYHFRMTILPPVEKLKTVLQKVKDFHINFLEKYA

| SMILES | Potency |
| --- | --- |
| COc1ccc(C(=O)N2CCn3c(nnc3-c3ccccc3)C2)cc1 | inconclusive [inhibitor, full curve, poor fit] |
| COC[C@@H]1CN(Cc2cnn(C)c2)C[C@H]1c1ccncc1 | inactive |
| CC(C)n1c(/C=C/[C@@H](O)C[C@@H](O)CC(=O)O)c(-c2ccc(F)cc2)c2ccccc21 | inconclusive [inhibitor, single point] |
| CC(C)(C)c1ccc(C(=O)N2CCC(c3nc(C4CCOC4)no3)CC2)cc1 (configuration not stated) | inconclusive [inhibitor, single point] |
| COc1ccc(-c2cnc3[nH]cc(CC(=O)Nc4ccc(F)c(Cl)c4)c3c2)cc1 | inconclusive [inhibitor, single point] |
| CC1CC[C@]2(C(=O)O)CC[C@]3(C(=O)O)C(=CCC4[C@@]5(C)CC[C@H](OC6OC(C)C(O)C(OC7OC(CO)C(O)C(O)C7O)C6O)C(C)(C)C5CC[C@]43C)C2C1C (some centres not stated) | inconclusive [inhibitor, partial curve, poor fit] |
| CCOC(=O)C1(Cc2ccc(F)cc2F)CCCN(C(=O)Nc2ccc3c(c2)OCO3)C1 (configuration not stated) | inconclusive [inhibitor, single point] |
| CC(C)(C)C(=O)NC1CCN(Cc2ccc(-c3ccsc3)cc2)C1 (configuration not stated) | inactive |
| CCc1nc(-c2c3n(c(=O)n(CC(=O)Nc4cccc(F)c4)c2=O)CCCCC3)no1 | inconclusive [inhibitor, single point] |
| Cc1ncsc1CCNC(=O)c1ccc2nc(-c3ccccc3)cn2c1 | inactive |
| Cc1ccccc1CN1CC[C@H](c2nnc(-c3ccc(N(C)C)cc3)o2)C1 | inconclusive [inhibitor, partial curve, poor fit] |
| Cc1ccc(S(=O)(=O)NC[C@H]2O[C@@H](CO)[C@@H](O)[C@H]2N2CCCC2)cc1 | inactive |
| CN1CCCN(C(=O)C2(Oc3ccc4ncccc4c3)CCNCC2)CC1 | inconclusive [inhibitor, single point] |
| CCCc1noc(-c2cccn3c(CNC(=O)CC4CCCCC4)nnc23)n1 | inconclusive [inhibitor, partial curve, poor fit] |
| CC(C)N[C@@H]1CC[C@@H]1NC(=O)c1ccc(C(F)(F)F)cc1C(F)(F)F | inconclusive [inhibitor, full curve, poor fit] |
| CSCC(=O)Nc1ccc2n(c1=O)C[C@H]1C[C@@H]2CN(C(=O)c2ccc(-c3ccccc3)cc2)C1 | inconclusive [inhibitor, full curve, poor fit] |
| N#Cc1cccc(C(=O)N2CCC3(CCC3N3CCOCC3)CC2)c1 (configuration not stated) | inconclusive [inhibitor, single point] |
| Cc1nnnn1CCCN1CCc2onc(-c3ccc(C(F)(F)F)cc3)c2C1 | inconclusive [inhibitor, single point] |
| O=C(Nc1ccc(Oc2ccccc2)cc1)N[C@H]1CO[C@H]2[C@@H]1OC[C@H]2OC(=O)Nc1cccc2ccccc12 | inconclusive [inhibitor, full curve, poor fit] |
| COc1ccc(C(=O)NCCC2CCN(C(=O)Nc3ccccc3)CC2)cc1 | inactive |
| O=C(NCc1cccc(Cl)c1)C1CCN(C(=O)c2ncn3c2COC(c2ccc(F)cc2)C3)CC1 (configuration not stated) | inconclusive [inhibitor, single point] |

| SMILES | Potency |
| --- | --- |
| O=C1OCC2(CCN([S+](=O)([O-])c3ccccc3F)C2)N1CCN1CCOCC1 (configuration not stated) | inconclusive [inhibitor, partial curve, poor fit] |
| CCNC(=O)C1CCN(C(=O)CC(=O)Nc2ccccc2OCC)C1 (configuration not stated) | inconclusive [inhibitor, full curve, poor fit] |
| O=C1CC2(CCN(Cc3ccsc3)CC2)Oc2ccccc2N1c1ccccc1 | inactive |
| O=C(c1ccccc1Cl)N1CCC2(CC1)Cc1ccccc1NC2=O | inconclusive [inhibitor, single point] |
| CC(=O)N1CCC(C(=O)N2CCC3(CC2)NC(=O)N(c2ccccc2)N3)CC1 | inconclusive [inhibitor, single point] |
| Fc1ccccc1CNc1cc(Cl)nc2ccnn12 | inconclusive [inhibitor, single point] |
| CCCCCN(CCC(=O)NCCC(C)C)C(=O)c1cc(C)oc1C | inconclusive [inhibitor, partial curve, poor fit] |
| Cn1cc(-c2cccc(C(F)(F)F)c2)c2nc(CNc3ccccc3)cn2c1=O | inconclusive [inhibitor, partial curve, poor fit] |
| COc1cccc(CN2CCCC3(C2)NC(=O)c2ccccc2O3)c1 (configuration not stated) | inconclusive [inhibitor, single point] |
| COCCC(=O)N1CCC(n2c(C)cnc2-c2ccncc2)CC1 | inconclusive [inhibitor, single point] |
| C/C=C/CC(=O)N1CCC2(CCN(Cc3cccc(F)c3)CC2)C(CO)C1 (configuration not stated) | inconclusive [inhibitor, partial curve, poor fit] |
| Cc1ccc(C(=O)Nc2ccc(CN3CCN(C)CC3)c(C(F)(F)F)c2)cc1C#Cc1cnc2cccnn12 | inconclusive [inhibitor, full curve, poor fit] |
| CCOCCCNc1ncnc2c1CN(C1CCNC1)C(=O)CN2C (configuration not stated) | inactive |
| NCCOc1cc(C(=O)Nc2cc(OCCN)c3ccccc3n2)nc(C(=O)Nc2cc(OCCN)c3ccccc3n2)c1 | inconclusive [inhibitor, single point] |
| O=C(COc1ccc(F)cc1)N1CCC2(CC1)CN(C1CCC1)CC2CO (configuration not stated) | inconclusive [inhibitor, single point] |
| Cc1nn2c(c1-c1ccccc1N1CCCC1)N(C(=O)C1CCOCC1)CCC2 | inactive |
| CC(Oc1cccc(Cl)c1)C(=O)N1CCN(c2cc(-c3cccs3)[nH]n2)CC1 (configuration not stated) | inactive |
| O=C(c1ccc(F)cc1)N1CCC2(CC1)NC(=O)N(c1ccccc1Cl)N2 | inconclusive [inhibitor, partial curve, poor fit] |
| Cc1cc(OCCN2CCOCC2)nn1-c1ccc2ccccc2c1 | inconclusive [inhibitor, full curve, poor fit] |
| C=CCOC(=O)C1=C(C)N=C2SC=C(CC(=O)N3CCCC3)N2C1c1ccc(F)cc1 (configuration not stated) | inconclusive [inhibitor, single point] |
| C=CC1(C)C=C2CC[C@H]3[C@@](C)(C(=O)O)CCC[C@]3(C)C2CC1 (some centres not stated) | inactive |

| SMILES | Potency |
| --- | --- |
| COc1ccccc1-c1cc(N2CCOCC2=O)c2cncn2c1 | inconclusive [inhibitor, partial curve, poor fit] |
| Cc1cccc(N2Cc3c(NCCCOC(C)C)ncnc3N(C)CC2=O)c1 | inconclusive [inhibitor, single point] |
| CCn1ncc(CN2CCCCCCNC(=O)[C@@H]3CCC[C@@H]32)c1C | inconclusive [inhibitor, single point] |
| CCCN(Cc1cccc(OC)c1)C(=O)C(c1cccnc1)N1CCOCC1 (configuration not stated) | inactive |
| COc1ccc(-c2noc([C@@H]3C[C@@H](O)CN3Cc3cc4ccccc4o3)n2)cc1 | inactive |
| CN(C)C(=O)c1cccnc1OC1CCN(S(=O)(=O)c2ccc3c(c2)CCCC3)C1 (configuration not stated) | inconclusive [inhibitor, single point] |
| O=C1CC(c2ccccc2)N(C(=O)C2CC2)CCCN(C(=O)c2ccncc2)CCN1 (configuration not stated) | inactive |
| O=C(NC1CCCC1)N1CCC(C(=O)N2CCC(c3nc4ncccc4[nH]3)CC2)C1 (configuration not stated) | inconclusive [inhibitor, full curve, poor fit] |
| Cc1ccc(-c2nc(CNS(=O)(=O)C3CC3)[nH]c2-c2ccccn2)cc1 | inconclusive [inhibitor, single point] |
| COc1cccc([S+](=O)([O-])N2CCNc3cnc(Nc4ccc(N5CCOCC5)cc4)nc3C2)c1 | active: 1.12 µM |
| Cc1cc(C(F)(F)F)nn1CC(=O)NCC1Cn2cccc2CN1Cc1ccccc1 (configuration not stated) | inconclusive [inhibitor, full curve, poor fit] |
| CCOC(=O)c1cccc(NC(=O)N2CC[C@@H](CC(=O)N(C)CCC#N)[C@@H](CC)C2)c1 | inconclusive [inhibitor, partial curve, poor fit] |
| COc1ccc(-c2noc(N(C)Cc3ccccc3)n2)cc1OC | inconclusive [inhibitor, single point] |
| Cc1ccccc1-c1nc2cnccn2c1NCCC(=O)NCc1ccco1 | inconclusive [inhibitor, full curve, poor fit] |
| CCOc1ccccc1CNC(=O)c1cc2cn(C3CCCC3)cc2s1 | inconclusive [inhibitor, single point] |
| COc1ncccc1-c1ncc2c(n1)OCCN(c1ccccc1)C2=O | inactive |
| CCc1ccc(N2CC(c3noc(-c4ccc(N(C)C)cc4)n3)CC2=O)cc1 (configuration not stated) | inconclusive [inhibitor, single point] |
| O=C(Nc1ccc2ncnc(N3CCCCC3)c2c1)c1ccccc1Br | inactive |
| Cc1ccccc1Cn1cc(C(=O)N2CCN(C3CCCCC3)C(=O)C2)nn1 | inconclusive [inhibitor, single point] |
| COc1ccccc1C(=O)N1CC2(C1)NC(=O)c1ccccc1O2 | inactive |
